# Assay results from the supplement of paper PMC8728848.
# Some of the results follow.
# Assays:
# Experiment in all cases: glycan array binding signal (z-score within array); higher = stronger binding
# Settings in all cases: glycan notation: IUPAC condensed, linker removed; mutation: R343I
# Fuc(a1-2)Gal = target: Fuc(a1-2)Gal
# How it was run: (§1)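 From the Consortium for Functional Glycomics database, 3228 arrays were curated, keeping only those whose protein sequence was available. Binding is given as a within-array Z-score averaged across arrays sharing a protein sequence and across linkers. Negative Z-scores can be read as non-binding.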
# Fuc(a1-2)Gal(b1-3)GalNAc = target: Fuc(a1-2)Gal(b1-3)GalNAc
# How it was run: as §1
# [1] = target: Fuc(a1-2)Gal(b1-3)GalNAc(b1-3)Gal
# How it was run: as §1
# [2] = target: Fuc(a1-2)Gal(b1-3)GalNAc(b1-3)Gal(a1-4)Gal(b1-4)Glc
# How it was run: as §1
# [3] = target: Fuc(a1-2)Gal(b1-3)GalNAc(b1-4)[Neu5Ac(a2-3)]Gal(b1-4)Glc
# How it was run: as §1
# Fuc(a1-2)Gal(b1-3)GlcNAc = target: Fuc(a1-2)Gal(b1-3)GlcNAc
# How it was run: as §1
# [4] = target: Fuc(a1-2)Gal(b1-3)GlcNAc(b1-3)Gal(b1-4)Glc
# How it was run: as §1
# [5] = target: Fuc(a1-2)Gal(b1-3)[Fuc(a1-4)]GlcNAc
# How it was run: as §1
# Fuc(a1-2)Gal(b1-4)Glc = target: Fuc(a1-2)Gal(b1-4)Glc
# How it was run: as §1
# Fuc(a1-2)Gal(b1-4)Glc6S = target: Fuc(a1-2)Gal(b1-4)Glc6S
# How it was run: as §1
# Fuc(a1-2)Gal(b1-4)GlcNAc = target: Fuc(a1-2)Gal(b1-4)GlcNAc
# How it was run: as §1
# [6] = target: Fuc(a1-2)Gal(b1-4)GlcNAc(b1-3)Gal(b1-4)GlcNAc
# How it was run: as §1
# [7] = target: Fuc(a1-2)Gal(b1-4)GlcNAc(b1-3)Gal(b1-4)GlcNAc(b1-3)Gal(b1-4)GlcNAc
# How it was run: as §1
# [8] = target: Fuc(a1-2)Gal(b1-4)GlcNAc6S
# How it was run: as §1
# [9] = target: Fuc(a1-2)Gal(b1-4)[Fuc(a1-3)]GlcNAc
# How it was run: as §1
# [10] = target: Fuc(a1-2)Gal(b1-4)[Fuc(a1-3)]GlcNAc(b1-3)Gal(b1-4)[Fuc(a1-3)]GlcNAc
# How it was run: as §1
# [11] = target: Fuc(a1-2)Gal(b1-4)[Fuc(a1-3)]GlcNAc(b1-3)Gal(b1-4)[Fuc(a1-3)]GlcNAc(b1-3)Gal(b1-4)[Fuc(a1-3)]GlcNAc
# How it was run: as §1
# Fuc(a1-2)Gal6S(b1-4)Glc = target: Fuc(a1-2)Gal6S(b1-4)Glc
# How it was run: as §1
# [12] = target: Fuc(a1-2)Gal6S(b1-4)Glc6S
# How it was run: as §1
# [13] = target: Fuc(a1-2)Gal6S(b1-4)GlcNAc
# How it was run: as §1
# Fuc(a1-2)[Gal(a1-3)]Gal = target: Fuc(a1-2)[Gal(a1-3)]Gal
# How it was run: as §1
# [14] = target: Fuc(a1-2)[Gal(a1-3)]Gal(b1-3)GlcNAc
# How it was run: as §1
# [15] = target: Fuc(a1-2)[Gal(a1-3)]Gal(b1-4)Glc
# How it was run: as §1
# [16] = target: Fuc(a1-2)[Gal(a1-3)]Gal(b1-4)GlcNAc
# How it was run: as §1
# [17] = target: Fuc(a1-2)[Gal(a1-3)]Gal(b1-4)[Fuc(a1-3)]GlcNAc
# How it was run: as §1
# [18] = target: Fuc(a1-2)[Gal(a1-4)]Gal(b1-4)GlcNAc
# How it was run: as §1
# [19] = target: Fuc(a1-2)[GalNAc(a1-3)]Gal
# How it was run: as §1
# [20] = target: Fuc(a1-2)[GalNAc(a1-3)]Gal(b1-3)GlcNAc
# How it was run: as §1
# [21] = target: Fuc(a1-2)[GalNAc(a1-3)]Gal(b1-4)Glc
# How it was run: as §1
# [22] = target: Fuc(a1-2)[GalNAc(a1-3)]Gal(b1-4)GlcNAc
# How it was run: as §1
# [23] = target: Fuc(a1-2)[GalNAc(a1-3)]Gal(b1-4)[Fuc(a1-3)]GlcNAc
# How it was run: as §1
# [24] = target: Fuc(a1-2)[GalNAc(a1-4)]Gal(b1-4)GlcNAc
# How it was run: as §1
# [25] = target: Fuc(a1-2)[GalNAc(b1-3)]Gal
# How it was run: as §1
# Fuc(a1-3)GlcNAc = target: Fuc(a1-3)GlcNAc
# How it was run: as §1
# [26] = target: Fuc(a1-3)[Gal(b1-4)]Glc6S
# How it was run: as §1
# [27] = target: Fuc(a1-3)[Gal(b1-4)]GlcNAc
# How it was run: as §1
# [28] = target: Fuc(a1-3)[Gal(b1-4)]GlcNAc(b1-2)Man(a1-3)[Fuc(a1-3)[Gal(b1-4)]GlcNAc(b1-2)Man(a1-6)]Man(b1-4)GlcNAc(b1-4)GlcNAc
# How it was run: as §1
# [29] = target: Fuc(a1-3)[Gal(b1-4)]GlcNAc(b1-2)Man(a1-6)[Gal(b1-4)GlcNAc(b1-2)Man(a1-3)]Man(b1-4)GlcNAc(b1-4)GlcNAc
# How it was run: as §1
# [30] = target: Fuc(a1-3)[Gal(b1-4)]GlcNAc(b1-3)Gal(b1-3)[Fuc(a1-4)]GlcNAc
# How it was run: as §1
# [31] = target: Fuc(a1-3)[Gal(b1-4)]GlcNAc(b1-4)Gal(b1-4)[Fuc(a1-3)]GlcNAc
# How it was run: as §1
# [32] = target: Fuc(a1-3)[Gal(b1-4)]GlcNAc(b1-4)Gal(b1-4)[Fuc(a1-3)]GlcNAc(b1-4)Gal(b1-4)[Fuc(a1-3)]GlcNAc
# How it was run: as §1
# [33] = target: Fuc(a1-3)[Gal(b1-4)]GlcNAc6S
# How it was run: as §1
# [34] = target: Fuc(a1-3)[Gal3S(b1-4)]Glc6S
# How it was run: as §1
# [35] = target: Fuc(a1-3)[Gal3S(b1-4)]GlcNAc
# How it was run: as §1
# [36] = target: Fuc(a1-3)[Gal3S(b1-4)]GlcNAc6S
# How it was run: as §1
binder,measurement,setting,value
Surfactant Protein D (Human); Neck + Carbohydrate Recognition Domain (NCRD) (Homo sapiens) (protein) MLLFLLSALVLLTQPLGYLEAEMKTYSHRTMPSACTLVMCSSVESGLPGRDRDGREGPRGEKGDPGLPGAAGQAGMPGQAGPVGPKGDNGSVGEPGPKGDTGPSGPPGPPGVPGPAGREGALGKQGNIGPQGKPGPKGEAGPKGEVGAPGMQGSAGARGLAGPKGERGVPGERGVPGNTGAAGSAGAMGPQGSPGARGPPGLKGDKGIPGDKGAKGESGLPDVASLRQQVEALQGQVQHLQAAFSQYKKVELFPNGQSVGEKIFKTAQFVKPFTEAQLLCTQAGGQLASPRSAAENAALQQLVVAKNEAAFLSMTDSKTEGKFTYPTGESLVYSNWAPGEPNDDGGSEDCVEIFTNGKWNDIACGEKRLVVCEF,glycan array binding signal (z-score),Fuc(a1-2)Gal,-0.264
same,glycan array binding signal (z-score),Fuc(a1-2)Gal(b1-3)GalNAc,-0.279
same,glycan array binding signal (z-score),[1],-0.215
same,glycan array binding signal (z-score),[2],-0.275
same,glycan array binding signal (z-score),[3],-0.231
same,glycan array binding signal (z-score),Fuc(a1-2)Gal(b1-3)GlcNAc,-0.258
same,glycan array binding signal (z-score),[4],-0.271
same,glycan array binding signal (z-score),[5],-0.266
same,glycan array binding signal (z-score),Fuc(a1-2)Gal(b1-4)Glc,-0.273
same,glycan array binding signal (z-score),Fuc(a1-2)Gal(b1-4)Glc6S,-0.274
same,glycan array binding signal (z-score),Fuc(a1-2)Gal(b1-4)GlcNAc,-0.251
same,glycan array binding signal (z-score),[6],-0.262
same,glycan array binding signal (z-score),[7],-0.239
same,glycan array binding signal (z-score),[8],-0.277
same,glycan array binding signal (z-score),[9],-0.274
same,glycan array binding signal (z-score),[10],-0.256
same,glycan array binding signal (z-score),[11],-0.224
same,glycan array binding signal (z-score),Fuc(a1-2)Gal6S(b1-4)Glc,-0.264
same,glycan array binding signal (z-score),[12],-0.265
same,glycan array binding signal (z-score),[13],-0.262
same,glycan array binding signal (z-score),Fuc(a1-2)[Gal(a1-3)]Gal,-0.265
same,glycan array binding signal (z-score),[14],-0.272
same,glycan array binding signal (z-score),[15],-0.254
same,glycan array binding signal (z-score),[16],-0.279
same,glycan array binding signal (z-score),[17],-0.273
same,glycan array binding signal (z-score),[18],-0.26
same,glycan array binding signal (z-score),[19],-0.266
same,glycan array binding signal (z-score),[20],-0.274
same,glycan array binding signal (z-score),[21],-0.275
same,glycan array binding signal (z-score),[22],-0.269
same,glycan array binding signal (z-score),[23],-0.267
same,glycan array binding signal (z-score),[24],-0.266
same,glycan array binding signal (z-score),[25],-0.275
same,glycan array binding signal (z-score),Fuc(a1-3)GlcNAc,5.51
same,glycan array binding signal (z-score),[26],-0.27
same,glycan array binding signal (z-score),[27],-0.261
same,glycan array binding signal (z-score),[28],-0.264
same,glycan array binding signal (z-score),[29],-0.272
same,glycan array binding signal (z-score),[30],-0.254
same,glycan array binding signal (z-score),[31],-0.278
same,glycan array binding signal (z-score),[32],-0.258
same,glycan array binding signal (z-score),[33],-0.264
same,glycan array binding signal (z-score),[34],-0.271
same,glycan array binding signal (z-score),[35],-0.271
same,glycan array binding signal (z-score),[36],-0.276
